In all, about 81,000 sequences were measured (“one-hybrid fitness for binding NBS DNA”: median about -0.1, highest 2% from about 0.36 on). The list shows a part of the results.
B1: Caulobacter ParB omega fusion; a variant is named by its letters at X, in order, B8GW30 (parent)
chain: MESVVVGEPGMSEGRRGLGRGLSALLGEVDAAPAQAPGEQLGGSREAPIEILQRNPDQPRRTFREEDLEDLSNSIREKGVLQPILVRPSPDTAGEYQIVAGERAWRAAQRAGLKTVPIMVRELDDLAVLEIGIIENVQRADLNVLEEALSYKVLMEKFERTQENIAQTIGKSXSHVANXMRLLXLPDEVQSYLVSGELTAXHARAIAAAADPVALAKQIIEGGLSVRETEALARKAPNLSAGKSKGGRPPRVKDTDTQALESDLSSVLGLDVSIDHRGSTGTLTITYATLEQLDDLCNRLTRGI

Variants of: B1
Assay: one-hybrid fitness for binding NBS DNA (the Noc-binding site; scaled: cognate 1, non-cognate 0); higher = stronger binding
Conditions: with NBS DNA site
Procedure, shortened: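 Bacterial one-hybrid selection in E. coli USO rpoZ- hisB- pyrF- with a HIS3 reporter carrying the site 19 bp from the promoter, screening Caulobacter ParB libraries with four specificity codons randomised (NNS). Cells grew 48 hours at 37°C on M9-minus-histidine plus 0.1 mM IPTG and 5 mM 3-AT. Plasmids before and after selection were Illumina-sequenced, three replicate libraries pooled, and variants under 10 reads dropped. Fitness is the log change in variant-to-wild-type read ratio, rescaled to cognate 1, non-cognate 0.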

one-hybrid fitness for binding NBS DNA, 0.364:
FAFR

one-hybrid fitness for binding NBS DNA, 0.37:
QSFR

one-hybrid fitness for binding NBS DNA, 0.341:
RQRH

one-hybrid fitness for binding NBS DNA, 0.456:
QSMR

one-hybrid fitness for binding NBS DNA, 0.598:
RMKS

one-hybrid fitness for binding NBS DNA, 0.305:
TRTT

one-hybrid fitness for binding NBS DNA, 0.474:
RCQS

one-hybrid fitness for binding NBS DNA, 0.297:
QMQA

one-hybrid fitness for binding NBS DNA, 0.295:
QLDR

one-hybrid fitness for binding NBS DNA, 0.659:
QRSS

one-hybrid fitness for binding NBS DNA, ≤ 0.2:
PWKY
PARI
LQML
FLTE
LSCG
RLWI
CYWG
AFIA
CVSP
PFQQ
TEAW
SQRM
TNMW
KEAR
PTKT
VKYT
GVPS
RTCW
RAEC
YATV
CPSR
TNWC
RAQE
YNKI
ITAP
NSWC
KTLC
AYDC
CTWG
TCAS
MAFC
ILKA
AMKP
DMGC
YRNF
ALDW
KAWV
APLC
YSLS
MKMR
QNPG
SQVD
VHRS
RNLP
GFTC
RGWV
VQYT
WLNW
KFKW
AQTN
CEAT
RLGA
QCLN
CEPN
CYWR
YYIT
QIQN
RPMV
TMSR
MYSP
ADST
TPRQ
IIGT
YHGY
CTLI
TVPW
VTLL
GWST
VGCL
MMTD
VIRG
PKFR
SLKF
HVLR
HRVH
VKRY
GYHR
NCEG
LSHC
WQYG
GVDE
PLVW
YYIF
ASHG
SSYL
EKAR
EMEV
PFQG
RPKR
NPQD
PNWC
RWDG
GKVS
LTLG
DNPV
RFNA
QACA
EDWG
PSAG
RRNP
RIDC
ATRV
EPYL
WYSC
KSVS
CHKP
MANT
RTVN
ACAY
SHTF
LKVS
QGHL
PDKC
MPFG
SLDN
PHSM
GNCC
WRLV
QGLK
TEVT
HQAA
EWQR
SIVF
QFDM
RAPD
QHAL
IHYA
AASR
SHWS
MLAC
TKSS
GTEM
PACV
TFRY
VLEI
FCYG
RFAD
ERWR
QKPP
QNES
WCPG
QTIV
DLSP
